Assay results taken from the supplement of paper PMC3724861.
Some of the results follow.

System: T1, Caupolican (Caup) homeodomain DNA-binding domain
T1 sequence: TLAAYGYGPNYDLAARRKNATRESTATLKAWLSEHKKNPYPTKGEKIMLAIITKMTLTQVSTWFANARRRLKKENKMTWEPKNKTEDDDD
Assay: PBM E-score (8-mer, recovered from the published 9-mer minima) (E-score (dimensionless, -0.5 to 0.5)); Drosophila protein; higher = stronger relative binding preference, active = 0.31 or more
Outline: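 Caup's homeodomain DNA-binding domain (residues 214-303) was produced by in vitro transcription and translation and applied at 100 nM to custom-designed protein binding microarrays. Each value is an enrichment score giving relative binding preference for a short DNA word; higher means stronger. Published 9-mer scores were the minimum of their two constituent 8-mer scores, and the 8-mer values were recovered from those minima. A cutoff of 0.31 marks candidate binding sequences.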

Sequence	PBM E-score
ACTCGTGC	inactive: -0.0342
CATGTGAA	inactive: 0.131
CATGGCTC	inactive: 0.0143
CCCAGGGC	inactive: -0.312
GGTCAAAA	inactive: 0.0172
ACCGGACC	inactive: -0.118
CCAATGTC	inactive: 0.0611
CTTTGGCA	inactive: -0.0546
GGGCCAAC	inactive: -0.123
AAAAGGAA	inactive: -0.00331
AACAGGAT	inactive: 0.196
AAAACTAC	inactive: 0.199
AGCTGGAC	inactive: -0.0138
CTACCTAA	inactive: 0.0488
GGAATGTA	inactive: 0.144
GACTCTGC	inactive: -0.166
CTCCACGC	inactive: -0.203
CCCTAGTA	inactive: 0.0295
ACCGACCT	≥ -0.0352
ACTCGCCT	inactive: -0.0825
GACTGAGA	inactive: -0.0628
CTACTCCA	inactive: -0.021
AGGGTGGC	inactive: -0.17

Sequence	PBM E-score
CGCTCGAG	inactive: -0.114
GCGTCCCC	inactive: -0.191
CATGGTGA	inactive: 0.0885
ATGGCGTA	inactive: 0.002
ACTAACGG	inactive: 0.013
GCTACTTA	inactive: 0.0916
GATGGCCC	inactive: -0.223
GAAGACTA	inactive: 0.00515
GATAACAA	active: 0.32
CACTCCGA	inactive: -0.138
AGCACGCT	inactive: -0.138
ACTCTACA	inactive: 0.193
TCCATGCA	inactive: -0.0253
TCTTAAAA	inactive: 0.0315
GTTATGGA	inactive: 0.068
CTTAGTAA	inactive: 0.103
TCATTAAA	inactive: 0.143
CTTACGTC	inactive: -0.129
AAAGGTCG	inactive: -0.118
ACGAAGGA	≥ -0.0222
ACTGTAGG	inactive: 0.0554
TAGCAACA	≥ 0.244
CCGCTAGC	inactive: -0.237

Sequence	PBM E-score
ACCTTACC	inactive: -0.0231
AGCTGTAT	inactive: 0.111
GGACGCGA	inactive: -0.081
AATAGGCA	≥ 0.0818
GAGGCTAC	inactive: -0.0893
ATGAACAA	inactive: 0.286
AACAGCGA	inactive: 0.0365
GAATAGCC	inactive: -0.146
GAAGGACC	inactive: -0.25
ACGGCGTG	inactive: -0.0192
AGTGGTTG	inactive: 0.201
CGAGTTTC	≥ 0.0614
ATTTGCCG	inactive: -0.0175
AACATACG	inactive: 0.28
CTCTCCTA	inactive: -0.0172
AGTGCTTG	inactive: 0.116
CGAATGTC	inactive: 0.147
CCTCTGCC	inactive: -0.243
ACCAATAG	inactive: 0.0279
AAGCACCA	inactive: -0.0758
AATGCCCG	inactive: -0.115
ACTGGAAA	inactive: -0.0184
GACAAGCA	active: 0.321

Sequence	PBM E-score
AAGCTCGT	inactive: 0.016
GAGCGAGA	inactive: -0.0287
ATTCTTTC	inactive: 0.0521
CACTGGAA	inactive: -0.0017
ACATTAGG	inactive: 0.0796
GGCCTGAC	inactive: -0.169
CGAGGGTC	inactive: -0.238
GAGGCGAA	inactive: -0.13
CTTGACAA	inactive: 0.231
GAACATTC	inactive: 0.167
GCTGTACA	inactive: 0.268
AATTTGCG	inactive: 0.047
ATGTGGGA	inactive: 0.0202
CCATGGAC	inactive: -0.0492
CCGTAAAC	inactive: 0.0245
GCCAGCCC	inactive: -0.241
TCACCTGA	inactive: -0.0249
ATCGATCA	≥ 0.159
ACAGAAGT	inactive: 0.0508
GATCATCA	inactive: 0.0732
AGGCGACC	inactive: -0.0984
ACGAAGGC	inactive: -0.203
ACCGAAGC	inactive: -0.129

Sequence	PBM E-score
ATCGCGCG	inactive: -0.105
CGCCGATA	inactive: -0.0683
ACGCCTCT	inactive: -0.0874
CCGCAGGA	inactive: -0.258
CGAGCCTC	inactive: -0.249
ACGATGGC	inactive: 0.00603
AACAGAAA	≥ 0.203
CGTCTTGA	inactive: -0.0138
CGCGTTCA	inactive: 0.03
ATACATGC	active: 0.374
CATGCCGG	inactive: 0.00418
CTATGACA	inactive: 0.223
GCAGGAAC	inactive: -0.0943
GTACACAA	active: 0.338
GTACAACA	active: 0.429
CTCGTTGC	inactive: 0.0292
ATGGTTTA	inactive: 0.111
CCATTATA	inactive: -0.00987
CGAAAGAA	≥ 0.0521
AGTGCGAC	inactive: -0.0749
AGCGAGGG	inactive: -0.182
